Laboratory results: PubChem BioAssay AID1460 (National Center for Advancing Translational Sciences (NCATS), 2008)
Several values for one entry are separate records, joined by “and”; a condition that tells them apart may be missing. Equal values may be shown once. The whole screen tested about 270,000 compounds, of which about 5,800 (2.1%) were called active. Inconclusive results, whose numbers are uncertain, are shown with a selection of clear calls. Calls follow the shape of the dose curve; as a rule, active = well fitted inhibition curve with a large enough effect; inconclusive = small, poorly fitted or top-dose-only effect; inactive = flat fitted curve, though single readings scatter. Potencies beside an inconclusive call are fits to weak or partial responses and may not hold up.

target: Microtubule-associated protein tau (Homo sapiens) (UniProt P10636); experiment: qHTS for Inhibitors of Tau Fibril Formation, Thioflavin T Binding; settings: recombinant tau K18 P301L (four-repeat tau fragment), heparin-induced fibrillization, ThT fluorescence; series mostly up to 57.4 µM; activity, negative = inhibition: at the top concentration; also: nearly all actives have a fitted effect of over 55% in size
In short: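 Aggregation was driven by heparin (20 uM final) acting on recombinant tau […] bearing P301L in 100 mM sodium acetate pH 7; fibrils were detected with Thioflavin T.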
% is scaled to controls: 0 for no effect and ±100 for the full control effect; potency is read from the fitted curve at half-maximal effect; tags tell the direction and shape of the fitted curve.

Chain of UniProt P10636 (P10636 whole entry, looked up, the tested form may be a part): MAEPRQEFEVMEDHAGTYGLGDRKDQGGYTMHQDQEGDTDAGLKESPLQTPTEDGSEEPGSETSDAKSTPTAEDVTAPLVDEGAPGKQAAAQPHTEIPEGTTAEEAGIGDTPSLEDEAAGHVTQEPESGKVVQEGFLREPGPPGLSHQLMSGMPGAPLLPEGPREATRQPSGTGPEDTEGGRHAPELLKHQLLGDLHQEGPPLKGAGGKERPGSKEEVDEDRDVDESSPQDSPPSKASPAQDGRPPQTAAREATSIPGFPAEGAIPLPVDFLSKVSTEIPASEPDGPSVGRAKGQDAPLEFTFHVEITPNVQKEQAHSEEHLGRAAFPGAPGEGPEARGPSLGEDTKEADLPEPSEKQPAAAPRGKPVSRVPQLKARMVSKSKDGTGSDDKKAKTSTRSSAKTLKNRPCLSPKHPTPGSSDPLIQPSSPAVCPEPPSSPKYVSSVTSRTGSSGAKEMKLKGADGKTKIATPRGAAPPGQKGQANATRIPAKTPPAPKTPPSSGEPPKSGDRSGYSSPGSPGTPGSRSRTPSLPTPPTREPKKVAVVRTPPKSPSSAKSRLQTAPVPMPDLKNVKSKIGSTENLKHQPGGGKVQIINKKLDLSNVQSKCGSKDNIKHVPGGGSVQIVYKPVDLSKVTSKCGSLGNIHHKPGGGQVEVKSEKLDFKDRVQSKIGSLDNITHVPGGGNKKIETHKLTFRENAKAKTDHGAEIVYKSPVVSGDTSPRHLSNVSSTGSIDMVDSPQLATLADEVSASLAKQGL

| Structure (SMILES) | activity, negative = inhibition | Potency |
| --- | --- | --- |
| Cc1cccc(NC(=O)CS(=O)(=O)c2nc(-c3ccccc3)cn2-c2cccc(Cl)c2)c1C | inactive: -4.16% | – |
| COc1ccc2c(c1)cc(C)c1nnc(SCC(=O)N3CCN(C(=O)c4ccco4)CC3)n12 | – | inconclusive: 12.6 µM [inhibitor, partial curve] |
| O=C(COC(=O)CC(c1ccccc1)c1ccccc1)NCc1ccccc1 | – | inconclusive: 28.2 µM [inhibitor, single point] |
| Cc1ccc(S(=O)(=O)N(CCc2ccccc2)CC(=O)Nc2cc(C)ccc2C)cc1 | inactive: 4.59% | – |
| COc1cc2c(cc1OC)C(SC)=NC(C)(C)C2 | – | inconclusive: 20 µM [inhibitor, partial curve] |
| CCCCC(=Nc1ccc(N)cc1)C1=C(O)C(C(=O)OC)C(C)(C)CC1=O (stereo unspecified) | – | active: 10 µM |
| Oc1ccc(Cl)cc1/C=C/c1ccc2cccc(O)c2n1 | – | inconclusive: 14.1 µM [inhibitor, partial curve, poor fit] |
| Nc1c([N+](=O)[O-])cc(-c2cnc[nH]2)cc1[N+](=O)[O-] | – | inconclusive: 7.08 µM [inhibitor, single point] |
| O=[N+]([O-])c1ccc(-c2csc(N/N=C/c3cccnc3)n2)cc1 | – | active: 2.24 µM |
| CC1(C)O[C@H]2[C@@H](O1)[C@@H](C(=O)Nc1ccc(F)c(F)c1)O[C@@H]1OC(C)(C)O[C@@H]12 | inactive: 4.78% | – |
| CCc1cccc(C)c1NC(=O)CSc1nc2ccccc2nc1N1CCOCC1 | – | inconclusive: 39.8 µM [inhibitor, single point] |
| Fc1ccccc1Nc1nc2ccccc2n2nnnc12 | – | inconclusive: 15.8 µM [inhibitor, partial curve] |
| CC1CC(C)(C)NC(=S)S1 (stereo unspecified) | inactive: 1.38% | – |
| O=C(O)c1cc(N/N=C/C=C/c2ccccc2[N+](=O)[O-])ccc1Cl | – | active: 3.55 µM |
| CCOc1cc(C(c2c(C)[nH][nH]c2=O)c2c(C)[nH][nH]c2=O)ccc1OCc1ccc([N+](=O)[O-])cc1 | – | active: 11.2 µM |
| CCOc1cc(/C=C2/C(=N)N3C=CSC3=NC2=O)ccc1OCCCOc1ccccc1C | – | inconclusive: 15.8 µM [inhibitor, partial curve] |
| O=C(Nc1cccc(S(=O)(=O)N2CCOCC2)c1)c1ccc(Cl)c([N+](=O)[O-])c1 | – | inconclusive: 28.2 µM [inhibitor, single point] |
| COc1ccc2c(c1OC)C(=O)N(c1cccc(C(F)(F)F)c1)C2 | – | inconclusive: 39.8 µM [inhibitor, single point] |
| N=c1n(CCN2CCCCC2)c2ccccc2n1CC(O)COc1ccc(Cl)cc1Cl (stereo unspecified) | – | inconclusive: 6.31 µM [inhibitor, full curve, poor fit] |
| CCN1C(=O)C2C(C1=O)N1C(c3ccccc3)C3C(=O)N(CC)C(=O)C3N1C2c1ccccc1 (stereo unspecified) | inactive: -10.6% | – |
| Cc1nc(NC(=O)c2ccccc2)sc1-c1csc(Nc2cccc(Cl)c2)n1 | – | active: 7.94 µM |
| COc1ccc(N=C2NN=C(c3c(C)[nH]c4ccccc34)CS2)cc1 | – | inconclusive: 7.94 µM [inhibitor, partial curve, poor fit] |

| Structure (SMILES) | activity, negative = inhibition | Potency |
| --- | --- | --- |
| S=C(Nc1ccc(Cl)cc1)c1sc(N2CCCCC2)nc1N1CCOCC1 | – | inconclusive: 14.1 µM [inhibitor, partial curve, poor fit] |
| Cc1cc(NC(=O)N(C)CCc2c(C)nn(C)c2C)ccc1Br | inactive: -4.5% | – |
| CCN(CCNC(=O)Nc1ccc(Cl)cc1)c1ccccc1 | – | inconclusive: 14.1 µM [inhibitor, partial curve] |
| CCc1ccc(NC(=O)Nc2cccs2)cc1 | – | inconclusive: 25.1 µM [inhibitor, partial curve] |
| COC(=O)COc1ccc(S(=O)(=O)N2CCCCCC2)cc1 | inactive: 7.38% | – |
| COC(=O)C1=C(C)N(Cc2ccccc2)C2=C(C(C)=O)C(c3ccccc3)[C@@](O)(C(=O)OC)C(=O)N2C1c1ccccc1 (stereo partly specified) | – | inconclusive: 3.98 µM [inhibitor, single point] |
| Cc1c(/C=N/N=C2\CCC3C4CCc5cc(O)ccc5C4CCC23C)cnn1C (stereo unspecified) | – | inconclusive: 0.316 µM [inhibitor, full curve] |
| Fc1ccc2[nH]c3c(c2c1)CN(C(=S)NCc1ccccc1)CC3 | – | inconclusive: 31.6 µM [inhibitor, partial curve, poor fit] |
| COC(=O)c1c(N(S(C)(=O)=O)S(C)(=O)=O)sc2c1CCN(c1ncc(C(F)(F)F)cc1Cl)C2 | inactive: -15% | – |
| Cc1csc2c(SCC(=O)NNC(=O)C(Cl)Cl)ncnc12 | – | inconclusive: 15.8 µM [inhibitor, partial curve, poor fit] |
| O=C(N/N=C\c1ccc(O)c([N+](=O)[O-])c1)C1COc2ccccc2O1 (stereo unspecified) | – | active: 10 µM |
| COc1ccc(-n2c(=S)[nH]c3ccccc32)cc1 | – | inconclusive: 20 µM [inhibitor, partial curve] |
| COc1ccc([N+](=O)[O-])cc1NC(=O)c1ccc(N2C(=O)CCC2=O)cc1 | – | inconclusive: 1.58 µM [activator, partial curve] |
| Cc1cccc(N2CCN(C(=O)C3CCN(S(=O)(=O)N4CCOCC4)CC3)CC2)c1C | – | inconclusive: 28.2 µM [inhibitor, single point] |
| O=C(NNC(=S)Nc1ccc(F)cc1)c1ccccc1OC(F)F | inactive: -13.1% | – |
| Cc1cc(OCC(=O)Nc2ccc3oc(-c4ccncc4)nc3c2)ccc1Cl | – | inconclusive: 0.398 µM [inhibitor, full curve] |
| COc1ccc(CNc2ccccc2)cc1Br | – | inconclusive: 14.1 µM [inhibitor, partial curve] |
| O=C(NC1CCCCCC1)C(=S)NCc1ccccc1 | inactive: -14.6% | – |
| O=C(COc1ccccc1)Nc1ccc2nc(SCC(=O)N3CCCC3)sc2c1 | – | inconclusive: 2.82 µM [inhibitor, partial curve] |
| COc1ccc(Cn2c(C)c(C)c(C#N)c2NC(=O)Nc2cccc(Cl)c2)cc1 | – | inconclusive: 14.1 µM [inhibitor, partial curve] |
| COc1cccc(C2c3c(oc4ccc(F)cc4c3=O)C(=O)N2CCN2CCOCC2)c1OC (stereo unspecified) | – | inconclusive: 31.6 µM [inhibitor, single point] |
| CCCC[n+]1ccn(C2=C([O-])c3ccccc3C(=O)/C2=N\S(=O)(=O)c2ccc(Br)cc2)c1 | – | inconclusive: 7.08 µM [inhibitor, partial curve] |

| Structure (SMILES) | activity, negative = inhibition | Potency |
| --- | --- | --- |
| O=[N+]([O-])/C(C(Cl)=C(Cl)Cl)=C(/Sc1ccccc1)N1CCCCC1 | – | active: 22.4 µM |
| COCCNC(=S)N1CCN(S(C)(=O)=O)CC1 | inactive: -0.199% | – |
| Cc1n[nH]c(C)c1N=Nc1cc(Cl)ccc1Cl | – | inconclusive: 3.55 µM [inhibitor, full curve] |
| O=C(NN1C(=O)/C(=C/c2ccc(O)c([N+](=O)[O-])c2)SC1=S)c1ccccc1Cl | – | active: 3.98 µM |
| C=CCC1(c2ccccc2)Oc2ccccc2-c2nc3cc(Cl)c(Cl)cc3nc21 (stereo unspecified) | inactive: -8.16% [at 11.5 µM] and inactive: -3.05% [at 11.5 µM] | – |
| Oc1c(Cl)cc(Cl)cc1Sc1cc(Cl)cc(Cl)c1O | – | active: 14.1 µM |
| CCOc1cc(-c2nc(C)c(C(C)=O)n2O)ccc1OCC(=O)Nc1ccccc1 | – | inconclusive: 17.8 µM [inhibitor, partial curve, poor fit] |
| O=C1[C@H]2[C@@H](C(=O)N1c1cccc3ccccc13)C1(C(=O)c3ccccc3C1=O)N1CCC[C@@H]21 | – | inconclusive: 12.6 µM [inhibitor, partial curve] |
| Cc1ccccc1CNC(=O)CCSCc1cnn(-c2ccccc2)c1-n1cccc1 | – | inconclusive: 1 µM [inhibitor, full curve, poor fit] |
| COc1cc2[nH]c(=S)n(Cc3cccs3)c(=O)c2cc1OC | – | inconclusive: 12.6 µM [inhibitor, partial curve, poor fit] |
| CCOC(=O)c1ccc(NC(=O)c2ccc(-c3cccc(Cl)c3C)o2)cc1 | – | inconclusive: 1 µM [inhibitor, full curve] |
| CN(CC(=O)NCc1ccncc1)S(=O)(=O)c1ccc2ccccc2c1 | inactive: 0.628% | – |
| Cc1ccc(S(=O)(=O)N2CCCCC2C(=O)N2CCN(C)CC2)cc1 (stereo unspecified) | – | active: 15.8 µM |
| Cc1cc(-c2ccccc2C(=O)NCc2ccccc2)on1 | inactive: -0.206% | – |
| COC(=O)c1cc2oc3ccccc3c2n1CC(=O)Nc1ccc(N(C)C)cc1 | – | inconclusive: 17.8 µM [inhibitor, single point] |
| Cc1ccc(NC(=O)COc2ccc(-c3nn(C)c(=O)c4ccccc34)cc2)c(C)c1 | inactive: -8.78% | – |
| Nc1c(-c2nc(-c3ccccc3Cl)no2)nnn1-c1ccccc1F | inactive: 9.64% | – |
| CCc1ccc(-c2nc(CN3CCC(C(=O)N4CCN(c5ccccc5)CC4)CC3)c(C)o2)cc1 | – | inconclusive: 14.1 µM [inhibitor, partial curve] |
| Cc1nc(N=Nc2ccc(S(=O)(=O)O)cc2S(=O)(=O)O)c(COP(=O)(O)O)c(C=O)c1O | – | inconclusive: 22.4 µM [inhibitor, partial curve] and inconclusive: 7.08 µM [inhibitor, single point] and inconclusive: 20 µM [inhibitor, single point] |
| COc1cccc(NC(=O)Nc2ccc3c(c2)nc(C)n3C)c1 | – | inconclusive: 25.1 µM [inhibitor, partial curve] |
| Cc1cc(C)cc(NC(=O)c2cc(Cl)sc2Cl)c1 | – | inconclusive: 12.6 µM [inhibitor, partial curve] |
| Cc1cc(=O)[nH]c(N/N=C/c2ccc3c(c2)OCCO3)n1 | – | inconclusive: 7.08 µM [inhibitor, full curve] |
